Publication PMC12136788
Some of the results follow.

B1: chr8:38067834:38067835:+_ENSG00000156735_ENST00000287322|hu_hu|FALSE|FALSE (ssRNA)
RNA: GGGAGUUCUACAGUCCGACGAUCCUUGGUUAGCAUUUCUUCCAGAAGCCAGUAUGCUUUGUCUGUCUUUUUUCCUACAAAUUCUUCUACUUCUUGUUCAAGAUACUGGACCUUCUCCAGCACAUGUAUGAUUUUUUUAAUACUCAACAGAGGAUUGAGCAUCA
B2: chr1:193038565:193038566:+_ENSG00000116747_ENST00000367444|hu_mus|FALSE|FALSE (ssRNA)
RNA: GGGAGUUCUACAGUCCGACGAUCGCGACCCCACAUGCCACACUUCAUGCUCUCCUUCAGGUCUUUCUUAAACUGGAUAAAAGUGAAGAGGUGGGUCGGAAUGCGACACACUUCAGGGACAGCUUUAAAGGCUGCUUGCUUUGUCAACAGAGGAUUGAGCAUCA
B3: chrX:20428832:20428833:+_ENSMUSG00000001127_ENSMUST00000120356|mus_hu|FALSE|FALSE (ssRNA)
RNA: GGGAGUUCUACAGUCCGACGAUCACAAUGCUGGUGGAACUUGUAGCCACAGGUUUGGCAACGGAAGCCAUGGAACAGAAACUUAAGGCAGAAGUCACAGAACGCCAGGCUGAAGAAGGUCUUCCGUACAAAAUUGUGCAUGGUCAACAGAGGAUUGAGCAUCA
B4: chr12:39756943:39756944:-_ENSG00000139116_ENST00000544797|hu_mus|hu_hu_hu_mus_False|48_48 (ssRNA)
RNA: GGGAGUUCUACAGUCCGACGAUCGGUUUGGCUGUUACCCCCAAGGGAAUCCUGCAAGAGUCUUGUCAGCUUAGAGUCUCUGUAAGGGACAUGUGUGGCUCUCUUGCUCUUGUCCCCCAAGGCGCUGAUUACAUUCCCAAGAGCCAACAGAGGAUUGAGCAUCA
B5: chr1:220276048:220276049:+_ENSG00000067704_ENST00000302637|hu_mus|motif|central (ssRNA)
RNA: GGGAGUUCUACAGUCCGACGAUCGCAAAUUGCCUGGUUGGCGGGAAUUGUCCAAGGCUGGGUGGUCCAAACUAAAACGCGGACAGGGGAUGAGGCAUCUGUAAGAGACUCCAACUUCGGAGGAGGUCUCAGGAGGGGGAAUCUCAACAGAGGAUUGAGCAUCA
B6: chr9:98468509:98468510:+_ENSMUSG00000032458_ENSMUST00000035033|mus_mus|FALSE|FALSE (ssRNA)
RNA: GGGAGUUCUACAGUCCGACGAUCAAACGUCUUCACCAGUGUCUGAGUUUCAUGAUUCCAAACACACACACUGCCAUUGUAAAGACUAGCCAACAUCCAUGGCUCUGUGGGAUGCAAAUCCACGCUCUUAACUCGGUCAGACCUCAACAGAGGAUUGAGCAUCA
B7: chr1:171492454:171492455:+_ENSG00000117523_ENST00000367742|hu_hu|motif|central (ssRNA)
RNA: GGGAGUUCUACAGUCCGACGAUCAUCAGCUUCAGCAUCUAGGUUAUCAAAUUUAUCAAGCUCCUUCAGUUCUGAUGCACGGAGAAUGGAUGGGCGUUCAGGCUCAGAGGCCCAUGAAGGAGGUGGGCCUCUUCCUCGAAGGCCCAACAGAGGAUUGAGCAUCA
B8: chr3:31678068:31678069:+_ENSG00000163527_ENST00000295770|hu_hu|motif|central (ssRNA)
RNA: GGGAGUUCUACAGUCCGACGAUCUUUGCAUUAGAGAAACAUGAAAAUAAAUAUAAUUCAAGGAAGUAUAAUGAUUCUUCGGAUAUGUCUUUCUCAGACCUGUACUAGUUUACCGGUUCAAGAAGCUCUCAUCACAUUUUGUCACAACAGAGGAUUGAGCAUCA
B9: chr17:79190952:79190953:-_ENSMUSG00000039414_ENSMUST00000097281|mus_mus|FALSE|FALSE (ssRNA)
RNA: GGGAGUUCUACAGUCCGACGAUCGCUAUGAUCAGUUGCAGCCAUGAAUGCCAUUCGAAUCAGGUCAGAGAGAUGCAAUACUAGGAGGUCAUUUUUUGGGUUUCGUAGUUUAGCAGACCGUGCCAAGGCAAGGUCGAAGUGAGCCAACAGAGGAUUGAGCAUCA
B10: chr7:148615726:148615727:-_ENSMUSG00000019082_ENSMUST00000106007|mus_mus|FALSE|FALSE (ssRNA)
RNA: GGGAGUUCUACAGUCCGACGAUCUUUUACAUGACAAGACACAAAAAGUUACAACUUCUUAAAACUCUUCAAAAGAAAAAAAUAUAAUUCUGUAAGCAGCAGCAGCAGCUUUCAAGGUACAGACGUAAGAGGAGGGGUGGCUCCCAACAGAGGAUUGAGCAUCA
B11: 106595490_106595610_4186_CDS_ENSMUSG00000040661_ENSMUST00000046502|mouse|control|control (ssRNA)
RNA: GGGAGUUCUACAGUCCGACGAUCCAUAAAUAGGGAAUUCUCCCCAGCCUGGGAGGUGAAGGGGGUGGUGAGGUUAUGAUUUAAGGAGACAGGCGGCAUUGCAAACCCGCCAGAGACUGGAUACCCAUGUUCAUAGGGCUGCACCAACAGAGGAUUGAGCAUCA
B12: 112785651_112785771_727_CDS_ENSMUSG00000030881_ENSMUST00000084782|mouse|control|control (ssRNA)
RNA: GGGAGUUCUACAGUCCGACGAUCUUUGACAGUCAUGAGUGUGUCUUCCAUGGUCUUGGUGACCAGUGUGUUGAUGCUAGAGACAAAGAAGUUCACAGCCCCUAGCAGCGUCUCCCCAUUCUUGCACAGCAGCUUUUGUGUCUCCAACAGAGGAUUGAGCAUCA
B13: chr7:7679991:7679992:-_ENSG00000106399_ENST00000396682|hu_hu|hu_hu_hu_mus_False|1_78 (ssRNA)
RNA: GGGAGUUCUACAGUCCGACGAUCUGGGAUGAAUCUUUUCCAGCUUCCCCACGAAGCAGACAGGCUUGUCGAUAUACUGUGGUAACAUGCUGGCGUUGACGCGCGCUUUGGGGAGCUGCAUUAUGUCCUCCAUGAUUAUGGUCCCAACAGAGGAUUGAGCAUCA
B14: chr8:93522421:93522422:+_ENSMUSG00000056608_ENSMUST00000048665|mus_hu|motif|central (ssRNA)
RNA: GGGAGUUCUACAGUCCGACGAUCAGACUGGAUCAUUGCUUGAAGAUGAAAAUCAGAAGCAGCUGGAUUGUAAGUAUCUCGGAAUUCUCCAAGUAUUUUCUCCUCAGCACCUUUUAUAAGAUAUGGAUGAUUACAACAUUUCCUCAACAGAGGAUUGAGCAUCA
B15: chr4:147379129:147379130:-_ENSMUSG00000029016_ENSMUST00000137724|mus_hu|motif|central (ssRNA)
RNA: GGGAGUUCUACAGUCCGACGAUCCCGUCCAGUCAGUUUAGGGGAGGGAGGUAUUUGCAUUCUACUGUCUAUCUCUGGGCGGAACUGAUGGGAACAAAAUAUCUGGUGACUUAAACACAACAGGAUGUGCACGAGGGAUGAAUUCAACAGAGGAUUGAGCAUCA
B16: chr1:109605286:109605287:-_ENSG00000197780_ENST00000461096|hu_mus|hu_hu_hu_mus_True|1_98 (ssRNA)
RNA: GGGAGUUCUACAGUCCGACGAUCAAGUUUCAGAGUAUUCAGUGAUCACCUCUUUAAAUGCAAUUAUCCUUAUUAUAAGCUAAGCAGAAUAAUAAUUUAAUACCGUAAGUGAACUACACACAAAGCCUGAACCGCGAAACUACACAACAGAGGAUUGAGCAUCA
B17: chr3:20017139:20017140:+_ENSG00000144566_ENST00000273047|hu_mus|FALSE|FALSE (ssRNA)
RNA: GGGAGUUCUACAGUCCGACGAUCGAUAUCAUACACAACUAUGGCUGCUUGUGCUCCUCGGUAGUACAUUGGUGCUAAGCUAUGAUACCGUUCUUGACCAGCUGUAUCCCAUAUUUCAAAUUUUACUGUUGUGUCAUCAAGACACAACAGAGGAUUGAGCAUCA
B18: 42596325_42618074_664_CDS_ENSG00000124406_ENST00000264449|human|control|control (ssRNA)
RNA: GGGAGUUCUACAGUCCGACGAUCGUCAGCAGGUAUAUACUCUUUGCCUUUUAUUAUAACUAUAUCUCCAACAUUUACCUUUUCCCAGUGGACAAUUUCCCAAGCACCAUUUCUCAAAACUUGCGUUUGUUUCUUGUUCACUGCCAACAGAGGAUUGAGCAUCA
B19: 104830528_104867487_637_3pUTR_ENSMUSG00000028517_ENSMUST00000064139|mouse|control|control (ssRNA)
RNA: GGGAGUUCUACAGUCCGACGAUCGAUGCUCUCGUCAUUGCAGUAAAACCCUCGACGGUAAGGCUUAAUGGUGCUUGUCUCGAUGAUGAGGAAGGGCAGAGCCGCCAUGAAGAGGCAGAAGAGGUCCAGGCAGAUGAGCAGCACCAACAGAGGAUUGAGCAUCA
B20: chr12:110819636:110819637:-_ENSG00000196510_ENST00000455511|hu_hu|FALSE|FALSE (ssRNA)
RNA: GGGAGUUCUACAGUCCGACGAUCGAGCCGUAUGGCCUCCCGAAAGUGGAUUAUUGCUUCUUGGACUCUGCCCAUGUUCCUAAGUGCUGCUCCCUUAAGUAGCAGAGCUUGAACACUAUUACUGUUCAGCUGAAUGGCCUUGGCCAACAGAGGAUUGAGCAUCA
B21: chr17:87832841:87832842:-_ENSMUSG00000036438_ENSMUST00000040440|perfect_dup|FALSE|FALSE (ssRNA)
RNA: GGGAGUUCUACAGUCCGACGAUCACAACUUGGAAUGGAUUUGAGGCAAGUUGUGCCAUGAGCAGGUUUUCUUUAAGUGGCUAAACAAAGUUUAAAAAGCAAGUAACAAUAAAAGAAAAUGUUCCUGGUACAAUACCAGCAGUACAACAGAGGAUUGAGCAUCA
B22: chr19:16212804:16212805:+_ENSG00000167460_ENST00000300933|hu_mus|hu_hu_hu_mus_False|1_98 (ssRNA)
RNA: GGGAGUUCUACAGUCCGACGAUCAACAAUUCUGGAGAAGAACAUCAAUGUAACAUGGAACAGCAUUAAAGCUCAGUCAGAAGGCACAUGGGCAACAAUGAUCACCCCAGCAUUCUCGCUUGGAAUGCUUAAAGACAGAUGUUUCAACAGAGGAUUGAGCAUCA

Target: T1, UNK ZnF1-3 (human, UniProt Q9C0B0 31-174)
T1 sequence: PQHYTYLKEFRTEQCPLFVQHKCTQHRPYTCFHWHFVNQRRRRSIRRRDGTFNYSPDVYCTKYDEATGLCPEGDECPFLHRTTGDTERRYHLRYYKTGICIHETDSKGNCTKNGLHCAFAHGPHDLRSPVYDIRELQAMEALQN
Test: nsRBNS (natural sequence RNA bind-n-seq); RBNS binding buffer (assumed for nsRBNS): 25 mM Tris pH 7.5, 150 mM KCl, 3 mM MgCl2, 0.01% Triton X-100, 500 ug/ml BSA, 20 U/ml SUPERase-In, 4 C; UNK is unkempt and MSI1 is Musashi-1; names of the RNAs are library labels; protein concentration not given here; high values mean tight binding

| Binder | binding signal [enrichment R] |
| --- | --- |
| B1 | 0.444 |
| B2 | 0.861 |
| B3 | 1.46 |
| B4 | 0.67 |
| B5 | 2.6 |
| B6 | 0.522 |
| B7 | 1.27 |
| B8 | 0.791 |
| B9 | 1.07 |
| B10 | 1.75 |
| B11 | 1.56 |
| B12 | 0.67 |
| B13 | 0.717 |
| B14 | 1.15 |
| B15 | 1.58 |
| B16 | 0.793 |
| B17 | 0.942 |
| B18 | 0.367 |
| B19 | 2.03 |
| B20 | 0.857 |
| B21 | 0.947 |
| B22 | 1.45 |
